In PubChem BioAssay AID686979 (National Center for Advancing Translational Sciences (NCATS), 2013):
The whole screen tested about 420,000 compounds, of which about 50,000 (12%) were called active. The inconclusive results got no clear call from the source; some entries with a clear call stand among them for comparison. The call rests on the fitted dose curve; in most records, active means well fitted inhibition curve with a large enough effect; inconclusive means small, poorly fitted or top-dose-only effect; inactive means flat fitted curve, though single readings scatter. Potencies of inconclusive entries are left out as doubtful fits.

experiment: qHTS for Inhibitors of human tyrosyl-DNA phosphodiesterase 1 (TDP1): qHTS in cells in presence of CPT; conditions: chicken DT40 Tdp1-/-;hTDP1 cells + 20 nM CPT, ATP luminescence, 48 h; activity change, negative = growth inhibition: at 46.2 µM (top of the series) unless noted; further: nearly all actives have a fitted effect of over 55% in size
Procedure, shortened: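 Chicken DT40 Tdp1-/- cells stably complemented with human TDP1 were seeded at 400 cells/well in medium containing 20 nM camptothecin, exposed to pin-transferred compounds, and grown at 37 °C for at least 48 hr. Viability was read as ATP luminescence.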
On the % scale 0 is the no-effect control and ±100 the full control effect; potency means the concentration at half of the fitted maximal effect; tags describe the fitted curve by direction and shape.

Row | Structure (SMILES) | Potency | activity change, negative = growth inhibition
1 | CC(C)(C)c1ccc(OC(=O)c2ccc3snnc3c2)cc1 | inconclusive [inhibitor, partial curve] | 
2 | CCOC(=O)[C@]12CCCC=C1N(Cc1ccc(Cl)cc1Cl)C(=O)[C@H](CC(=O)NCCCOC)C2 | inconclusive [inhibitor, single point] | 
3 | COc1cc(CN2C[C@@H](CO)O[C@@H](n3cnc4c(Nc5ccccc5)ncnc43)C2)cc(OC)c1OC | inconclusive [inhibitor, partial curve, poor fit] | 
4 | COc1ccc2[nH]c(=O)c(CN(CC3CCCO3)S(=O)(=O)c3ccccc3F)cc2c1 (stereo not drawn) | inconclusive [inhibitor, single point] | 
5 | CC(=O)Nn1cc2c(=O)n(C)c(=O)n(C)c2c1 | inactive | 
6 | Cc1ccc(S(=O)(=O)NC(CC(C)C)C(=O)Nc2ccncc2)cc1 (stereo not drawn) | inconclusive [inhibitor, partial curve] | 
7 | C=CCN1C(=NC(=O)COc2ccc(Cl)cc2)SC2CS(=O)(=O)CC21 (stereo not drawn) | inactive | 
8 | OC(CN1CCN(c2ccccn2)CC1)Cn1c2ccccc2c2ccccc21 (stereo not drawn) | active: 14.6 µM | 
9 | O=C(Nc1cc(Cl)cc(Cl)c1)N[C@@H]1CC[C@@H](CCNS(=O)(=O)c2cccc(F)c2)O[C@@H]1CO | inconclusive [inhibitor, single point] | 
10 | O=C(CSc1nc2ccccc2c(=O)n1-c1ccc(F)cc1F)NC1CCS(=O)(=O)C1 (stereo not drawn) |  | inconclusive: -32.2% [inhibitor]
11 | O=C(c1cccc(Cl)c1)N1CCN(C(=O)c2ccco2)CC1 | inactive | 
12 | CC(=O)N1CCN(c2ncnc3sc(-c4ccccc4)cc23)CC1 | inconclusive [inhibitor, partial curve] | 
13 | COc1cc(C2NC(=O)NC3=C2C(=O)OC3)cc(OC)c1OC (stereo not drawn) | inconclusive [inhibitor, partial curve] | 
14 | Cc1cc(NC(=O)CN2CCCC(C)C2)n(-c2nc3ccccc3s2)n1 (stereo not drawn) | inconclusive [inhibitor, single point] | 
15 | CCc1ccc(CNC(=O)C2CCN(S(=O)(=O)N3CCCCC3)CC2)cc1 | inconclusive [inhibitor, partial curve, poor fit] | 
16 | Cc1nnc(SCC(=O)Nc2sccc2C#N)s1 | inactive | 
17 | CC(=O)c1c(C)[nH]c(C(=O)Nc2cccc(C(F)(F)F)c2)c1C | inconclusive [inhibitor, single point] | 
18 | O=C1CCCC2=C1C(c1ccc(O)c(Br)c1)C1=C(CCCC1=O)N2c1ccccc1 | inconclusive [inhibitor, partial curve] | 
19 | Cc1ccc(-n2ncc3c(NC4CCCCCC4)ncnc32)cc1 | active: 13 µM | 
20 | COc1ccc(C(=O)NCCn2cc(SCc3c(F)cccc3Cl)c3ccccc32)cc1 | inconclusive [inhibitor, single point] | 
21 | COc1ccc(CNC(=O)CN2C(=O)CC(c3ccc(C)c(C)c3)=Nc3ccccc32)cc1 | inconclusive [inhibitor, partial curve] | 
22 | CC1=C(C(=O)N(C(C)C)C(C)C)CC(CC(=O)NCc2cccc3ccccc23)C(=O)N1Cc1ccccc1 (stereo not drawn) | inconclusive [inhibitor, single point] | 

Row | Structure (SMILES) | Potency | activity change, negative = growth inhibition
23 | CCCCc1cc(=O)oc2cc(OCC(=O)NCC3CCC(C(=O)O)CC3)ccc12 (stereo not drawn) | inconclusive [inhibitor, single point] | 
24 | O=C(NCC1CCCO1)c1cnn2c(C(F)F)cc(C3CC3)nc12 (stereo not drawn) | inconclusive [inhibitor, partial curve, poor fit] | 
25 | O=C(O)CCC(=O)Nc1cccc(-c2nc3ccccc3o2)c1 | inactive | 
26 | CCN(CC)S(=O)(=O)c1cc(NC(=O)C(C)N2CCN(c3ccccn3)CC2)ccc1C (stereo not drawn) | active: 18.4 µM | 
27 | CCN1CCN(C(=S)NCCc2ccccc2)CC1 | inactive | 
28 | Clc1nc(-c2cccnc2)nc2scc(-c3ccccc3)c12 | inconclusive [inhibitor, single point] | 
29 | CCOC(=O)c1cccc(NC(=O)c2ccc3c(c2)OCO3)c1 | active: 14.6 µM | 
30 | Cc1ccc(S(=O)(=O)N2CCCN(C(=O)c3cc4ccccc4[nH]3)CC2)cc1 | inactive | 
31 | Cc1ccc(OCC(=O)NNC(=O)C2CCN(c3ncnc4sc(C)c(C)c34)CC2)cc1 | inconclusive [inhibitor, partial curve] | 
32 | COC(=O)c1c(-c2cccnc2)csc1NC(=O)c1ccc2c(c1)OCO2 | inconclusive [inhibitor, single point] | 
33 | COCc1ccc(CN2CCCC(CO)(Cc3cccc(Cl)c3)C2)o1 (stereo not drawn) | inconclusive [inhibitor, single point] | 
34 | O=C(CC(C(=O)N1CCc2ccccc21)n1ccnc1)N1CCc2ccccc2C1 (stereo not drawn) | inconclusive [inhibitor, single point] | 
35 | Cc1ccc(C(NC(=O)C2CCN(CCOc3ccccc3)CC2)c2ccccn2)cc1 (stereo not drawn) | inconclusive [inhibitor, single point] | 
36 | CC(C)C[C@H](NC(=O)Nc1cccc(C(F)(F)F)c1)C(=O)O | inactive | 
37 | COc1ccc(NC(=O)c2ccco2)cc1NC(=O)COc1ccccc1[N+](=O)[O-] | inactive | 
38 | CCc1cc(C(=O)N=Nc2c(O)[nH]c3ccc([N+](=O)[O-])cc23)c2ccccc2n1 | inconclusive [inhibitor, partial curve, poor fit] | 
39 | COc1ccc(C(=O)Nc2ccc(S(=O)(=O)Nc3cnc4ccccc4n3)cc2)cc1 | inconclusive [inhibitor, single point] | 
40 | CCOc1ccc(/C=N/NC(=O)c2cc3c(OC)cc(OC)cc3[nH]2)cc1OC | active: 13 µM | 
41 | COc1cc(NC(=O)N2CCc3c(sc4c3CCCC4)C2c2ccccc2)cc(OC)c1OC (stereo not drawn) | active: 10.3 µM | 
42 | CC(=O)c1c(COC(=O)c2ccc(C)cc2)nc2ccccc2[n+]1[O-] | inactive | 
43 | Cc1ccc(O)c(C(CC(=O)N2CCCC2)c2ccccc2)c1 (stereo not drawn) | inconclusive [inhibitor, partial curve, poor fit] | 
